# Measured values reported in the supplement of paper PMC11417369.
# ± gives the standard deviation of the averaged measurements. The list shows a part of the results.
# System: PfAP2-EXP AP2 domain (GST-tagged)
# Experiment: gcPBM binding intensity (ln(normalized median fluorescence intensity)); higher = stronger DNA binding
# Procedure, shortened: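 Binding intensity values are the highest Masliner-normalised natural-log median intensity among replicate spots of either probe orientation. The binding step lasted 1 h in 1× PBS with 1% milk, 0.2 mg/ml BSA, 0.5% salmon testes DNA and 0.03% Triton X-100, using GST-tagged P. falciparum DNA-binding domains expressed in E. coli on an Agilent 4 × 180k array of primer-extended double-stranded 36-bp intergenic genomic probes plus negative controls. Alexa488 anti-GST antibody and a 488 nm scan detected bound protein.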
row,Sequence,gcPBM binding intensity (ln)
1,GTATACATGCAAATTTTTATTTACAACCCCAAAAAG [XGTACX_negctrl_site255],9.1 ± 0.42
2,TTTTCATAATATACATGTACATATATAAATTATTAA [XGTACX_site5206],8.46 ± 0.44
3,TTTTTTTCACAAAATACACACAATATATTTTATATC [CACACA_site1138],8.3 ± 0.36
4,TATTATAATATGCCTTGTACATATAACAAATTTATT [XGTACX_site108],8.46 ± 0.36
5,ATGAACAAGTGGCACACACACATTATAACTAATTTA [CACACA_site5731],8.56 ± 0.35
6,TTTATTTATTACTAAAGTACTAAATCATATTATTAT [XGTACX_site2574],8.14 ± 0.4
7,AAAATAATATTTCCTTGTACACATATGTATTTGTTC [XGTACX_site4430],8.86 ± 0.43
8,TTCTTTTTTTTTATCACACATATTACAATCTAGTGC [CACACA_site4697],8.73 ± 0.41
9,ATATATAATTTTTACACACGCAATAAATATATATAT [CACACA_site4283],9.265 ± 0.078
10,TTTTGGATTGAGGACCTTTTTATAGAATTATGTTTT [TGCATGCA_negctrl_site544],8.44 ± 0.38
11,TTAACATAAATATATACACACCAATGATGGCATTTA [CACACA_site4952],8.13 ± 0.48
12,TATATATAATATATATGTACGTATATATATAATATA [XGTACX_site8383],8.38 ± 0.17
13,ATGTTATAAGATTTATGTACACACATATACACACCT [XGTACX_site1316],8.84 ± 0.42
14,GTTTCCTTAATATTCACACACATATATATAATATAT [CACACA_site1856],8.95 ± 0.33
15,TTTATTTTCCAAAGGGTGCACATAGTTGAAACGATA,9.71 ± 0.63
16,AATAAAGCAATAAATACACACATATTTATATTTATA [CACACA_site7390],8.24 ± 0.34
17,GGTATACACAAGTATACACACATATATATATATATA [CACACA_site9063],10.2 ± 0.22
18,CGTGAATATATGATATGTACTTATAAAAATTTGTGC [XGTACX_site5480],8.51 ± 0.38
19,ATAAATATCTAGGGTTCACACATTATATATCTGTAT [CACACA_site5702],8.35 ± 0.48

row,Sequence,gcPBM binding intensity (ln)
1,ACAAAGTTATAATTCTTGCACTTTAAGGTTCATTTA,8.28 ± 0.17
2,TTTTCCTCTTAAAATATACACACTGATTTAAGAAAA [CACACA_site3301],8.27 ± 0.34
3,ACGTAATAAAATAGTTGTACAACTTTTTATAATATA [XGTACX_site4393],8.68 ± 0.15
4,TTTTTTTTTTTTTTTTTTTTTTTTTTGTTCAGGCCT [GTGCAC_negctrl_site143],8.28 ± 0.4
5,AAACGATTAATGTGTACACACATAGTTATAAACCTA [CACACA_site2110],8.51 ± 0.36
6,TCATAAATATGAAAAAGTACAAAGGTAGATTTTGAA [XGTACX_site4535],8.48 ± 0.3
7,TATATATATATTATATGTACGTATGTATGTATATAT [XGTACX_site6451],9.44 ± 0.22
8,AAAAAAAAAAAAAAATATATATATATATACATACAT [CACACA_negctrl_site317],8.39 ± 0.16
9,TTTTTCTTTTTTTCTTTTTTTATAAAACTTAATTGT [CACACA_negctrl_site384],8.49 ± 0.47
10,TATTAATTATATTTATGTACATAATCATATTATTAT [XGTACX_site7938],8.55 ± 0.35
11,AGAAATATATATATATATATATATATATATATATAT [TGCATGCA_negctrl_site375],10 ± 0.45
12,TTCATTTTTTGCTTTCAACACACATACAATATATAT [CACACA_site9369],8.81 ± 0.39
13,AGTAACAAAAGAAAAAAATATGCAAACATATATATA [XGTACX_negctrl_site468],8.5 ± 0.42
14,AAAAAAAAAAAACACACACACACACCCACCCATACA [CACACA_site2859],8.82 ± 0.6
15,TTTACAACATCAAAATGTACGCATTATTATTATTAA [XGTACX_site3017],8.31 ± 0.32
16,TATTTAAAAAATAATACACACATAATATAACAAAAT [CACACA_site3174],8.88 ± 0.46
17,TGTGTATAAATATACACACACATATAAATATTTTAA [CACACA_site7005],8.27 ± 0.32
18,ACATATAATATAAATTGTACATATAAATATATTATT [XGTACX_site4268],8.38 ± 0.32
19,TCATATATTTTATACATACACACATATATATATTTT [CACACA_site3941],8.62 ± 0.53

row,Sequence,gcPBM binding intensity (ln)
1,ACGTTATACACAGTACGTACATAACTATCTAAATGT [XGTACX_site5068],8.59 ± 0.34
2,TGGAGGTCAGTTCACAGTACCCAGGAAATCTGCGGA [XGTACX_site2556],8.44 ± 0.38
3,TATAACATAGGACACACACACATACATACACAAAAA [CACACA_site5062],8.94 ± 0.35
4,ATGCATAATATACTCTTACACACCATTTCTATATAC [CACACA_site1461],8.84 ± 0.45
5,TTCACTTTTTTTTTTTTTTTTTTTTTTTTTTTTATT [GTGCAC_negctrl_site350],8.07 ± 0.56
6,TATTTTTATTTATAACGTACGAAAAATGTATATAAT [XGTACX_site703],8.79 ± 0.29
7,GGTGTATGTTAAAGGAGTACATATATATATATATAT [XGTACX_site7727],10.2 ± 0.25
8,CATACACATTTCATATGTACATAGATTGAAGGGAAG [XGTACX_site116],8.7 ± 0.37
9,TTTTATATATAATTCACACAAAAAAGATACATAAGA [CACACA_site5332],8.79 ± 0.4
10,ATTTTTTTTTTTTTTTTTTTTTTTTTTGAATTCACA [CACACA_negctrl_site982],8.09 ± 0.49
11,TATATAAAAATATGTTGTACGCATTTATAAATATAT [XGTACX_site3758],8.43 ± 0.39
12,ACAACACATATTCATCGTACATGTATTAGGAAGACA [XGTACX_site1859],8.75 ± 0.48
13,TAAGCAAAAATAATTACACACAAATTTATAAAAAAT [CACACA_site3377],8.49 ± 0.65
14,ATAAAAATATAATTGAGTACATATGAATAGTCCTAT [XGTACX_site6281],8.34 ± 0.33
15,ATTTTGTTTTTTTTTGCACACCATAAGGAGTGTAGG [CACACA_site1414],8.84 ± 0.41
16,AATAGTTCTTGAACGTGTACATAAAATATAATTTAC [XGTACX_site11],8.53 ± 0.29
17,TTCTATTTTTTAAAAGTGCATATTATAAATATATAT,8.69 ± 0.13
18,GAAATCTAAATAGAAACACACATATATAAATAAATA [CACACA_site7762],8.46 ± 0.36
19,GAATAATCCAAACACACACACACACCCGAATAAATA [CACACA_site482],8.79 ± 0.51
